The whole screen tested about 310,000 compounds, of which about 2,200 (0.71%) showed an effect of 50% or more. Effects have a minus sign here. The list shows a part of the results. *1 amine or outer side, *2 acyl side, *3 side chain or, on linkers, in order; H or OH if unused. Where a SMILES comes first, the peptide text is derived from it. Bridges are numbered along the chain shown (N, C = ends). [ ]: non-standard residue; d: D form. ξ: configuration not given here. hSer(Ph(2-I,4-NO2,6-CO)) = O=C([C@H](CCOc1c(I)cc([N+](=O)[O-])cc1C(=O)[*:3])N[*:1])[*:2]; ξD = NC(CC(=O)O)C(=O)O
molecular target: human ether-à-go-go-related gene (hERG) potassium channel (human, UniProt Q12809); assay: primary screen, population patch clamp on CHO cells stably expressing hERG
Sequence (Q12809 whole entry, looked up): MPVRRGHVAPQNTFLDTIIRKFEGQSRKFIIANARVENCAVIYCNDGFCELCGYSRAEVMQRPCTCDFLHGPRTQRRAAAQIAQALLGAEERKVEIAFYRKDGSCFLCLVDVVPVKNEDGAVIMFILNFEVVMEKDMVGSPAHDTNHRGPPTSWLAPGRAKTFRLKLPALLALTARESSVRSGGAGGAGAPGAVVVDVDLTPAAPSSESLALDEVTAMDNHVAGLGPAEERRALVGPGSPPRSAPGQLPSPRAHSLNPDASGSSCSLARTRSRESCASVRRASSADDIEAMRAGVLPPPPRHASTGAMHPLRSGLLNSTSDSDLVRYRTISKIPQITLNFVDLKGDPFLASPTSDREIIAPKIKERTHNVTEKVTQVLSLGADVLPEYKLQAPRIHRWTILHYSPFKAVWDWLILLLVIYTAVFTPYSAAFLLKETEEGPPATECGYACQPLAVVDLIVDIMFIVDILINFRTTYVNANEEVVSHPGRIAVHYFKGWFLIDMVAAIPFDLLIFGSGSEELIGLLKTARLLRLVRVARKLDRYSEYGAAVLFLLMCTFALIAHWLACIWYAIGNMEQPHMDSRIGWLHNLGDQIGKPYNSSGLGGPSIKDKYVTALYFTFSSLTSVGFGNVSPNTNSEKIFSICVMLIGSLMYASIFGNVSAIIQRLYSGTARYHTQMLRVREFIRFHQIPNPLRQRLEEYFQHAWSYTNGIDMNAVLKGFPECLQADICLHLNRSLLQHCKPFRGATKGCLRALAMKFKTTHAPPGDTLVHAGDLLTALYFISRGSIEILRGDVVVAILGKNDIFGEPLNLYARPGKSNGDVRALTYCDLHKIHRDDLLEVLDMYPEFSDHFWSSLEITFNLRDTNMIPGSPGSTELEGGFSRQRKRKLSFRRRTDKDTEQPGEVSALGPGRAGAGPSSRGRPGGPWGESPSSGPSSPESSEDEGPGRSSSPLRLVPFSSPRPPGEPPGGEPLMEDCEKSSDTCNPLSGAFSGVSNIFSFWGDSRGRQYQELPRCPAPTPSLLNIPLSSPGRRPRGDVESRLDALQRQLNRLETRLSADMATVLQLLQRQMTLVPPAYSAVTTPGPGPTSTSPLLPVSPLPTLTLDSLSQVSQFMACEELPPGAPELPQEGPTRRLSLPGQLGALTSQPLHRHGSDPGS

Structure (SMILES)	hERG current change (%, negative = inhibition) at 1uM
COc1ccc(S(=O)(=O)N(C)CC(=O)N2CCN(C)CC2)cc1C	6.2%
COc1ccc(S(=O)(=O)N2CCOCC2)cc1NC(=O)COc1cccnc1[N+](=O)[O-]	11%
CCOC(=O)NC(=O)COC(=O)c1cccc2ccccc12	-2.29%
CCn1c(=O)c(CCC(=O)N2CCOCC2)c(C)c2c(C)nn(-c3ccccc3)c21	9.79%
CC(C)(C)C(=O)Nc1sc2c(c1C#N)CCCCC2	10.1%
C=CCNC(=S)Nc1cccc([N+](=O)[O-])c1	3.94%
O=[N+]([O-])c1cnc(Sc2ccncn2)s1	13%
O=C1/C(=C/c2cccnc2)SC(=S)N1CCc1ccccc1	5.32%
COc1ccc(C2C(=O)N(CCc3ccccc3)CC(=O)N2C2CCCC2)cc1 (stereo not shown)	5.07%
O=C(CSc1ncn[nH]1)N1CCN(S(=O)(=O)c2ccccc2)CC1	22.6%
COC(=O)c1cc(OC)c(OC)cc1N1C(=O)CCCC1=O	12.5%
COc1ccccc1N=Cc1nc(-c2ccccc2)oc1OC(C)=O	12.9%
CCN1C/C(=C/c2ccc(N3CCOCC3)cc2)C(=O)/C(=C/c2ccc(N3CCOCC3)cc2)C1	8.45%
COc1ccc(-c2noc(CCN3C(=O)c4ccccc4C3=O)n2)cc1OC	-7%
COc1ccccc1N1CCN(C(=O)CSc2ncnc3scc(-c4ccccc4)c23)CC1	6.87%
COc1cccc(CNCCNC(=O)c2ccco2)c1OC.O=C(O)C(=O)O	-8.28%
CCC1CCc2c([nH]c3ccccc3c2=O)O1 (stereo not shown)	5.16%
COc1ccccc1CN(Cc1nc2ccccc2c(=O)[nH]1)C(=O)Nc1cccc(C)c1	4.17%
Cc1cc2c([nH]c3ccccc32)c2c1OC(C)(C)C=C2	-6.27%
Cc1ccc(CS(=O)(=O)c2ncc(Cl)c(C(=O)Nc3nnc(C)s3)n2)cc1	7.77%
CC(=O)C1=C(C)NC(SCC(=O)c2ccc(C)cc2)=C(C#N)C1c1ccco1 (stereo not shown)	8.75%
O=C(O)c1ccc2c(c1)NC(=O)C(N1CCCC1)S2 (stereo not shown)	8.79%

Structure (SMILES)	hERG current change (%, negative = inhibition) at 1uM
COc1cc(CN2CCN(c3cccc(Cl)c3)CC2)cc(OC)c1OC	4.64%
Cc1ccc(S(=O)(=O)NNC(=O)c2ccccc2-n2cccc2)cc1	-0.694%
COC(=O)C1=C(c2ccc(F)cc2OCc2ccccc2)C[C@@H]2CC[C@H]1N2C(=O)N1CCOCC1	3.52%
Clc1nc2ccccc2cc1/C=N/Nc1nc2ccccc2[nH]1	15.3%
COc1ccc(-c2ccc(-c3nnc(Cc4ccc(OC)c(OC)c4)o3)cc2)cc1	-2.04%
O=C1c2cccc(OCc3ccc(F)cc3)c2CCN1Cc1ccccc1	8.58%
Cc1cc(C)n(-c2nnc(C)n2NS(C)(=O)=O)n1	14.6%
COCCNC(=O)c1ccc(S(=O)(=O)c2ccc(Cl)cc2)c(NC(C)=O)c1	12%
Cc1cccc(OCCCC(=O)NCCc2ccccc2)c1	15%
CCOC(=O)c1c(S(=O)(=O)NCC2CCN(CCc3cccs3)CC2)c(C)n(C)c1C	-2.88%
Cc1cc(C)c(S(=O)(=O)Nc2ccc(C(=O)O)cc2)cc1S(=O)(=O)Nc1ccc(C(=O)O)cc1	10.8%
COc1ccc(N(CN2C(=O)C3C4C=CC(C4)C3C2=O)C(=O)c2ccco2)cc1 (stereo not shown)	-3.38%
Cc1cc(C(=O)Nc2sc(C)c(C)c2C#N)no1	-4.87%
COc1cccc(/C=C2/CN(C)CC3=C2OC(N)=C(C#N)C3c2cccc(OC)c2)c1 (stereo not shown)	5.1%
CC(C)C(=O)Nc1cc(S(=O)(=O)Nc2cccc(Cl)c2)ccc1Cl	10.4%
CCOc1ccc(S(=O)(=O)n2cnc3cc(C)c(C)cc32)cc1	13.2%
COc1cc(/C=C/C(=O)OCC(=O)Nc2cc(S(=O)(=O)N3CCCCC3)ccc2C)ccc1O	6.12%
CC(C)(C)c1ccccc1NC(=O)c1c(O)c2cccc3c2n(c1=O)CC3	12.4%
C[C@@H]1NC(=O)c2cc([N+](=O)[O-])cc(I)c2OCC[C@@H](C(=O)NC(CC(=O)O)C(N)=O)NC(=O)[C@H](CCC(=O)O)NC1=O (stereo partly shown) (AE[hSer(Ph(2-I,4-NO2,6-CO))][ξD]-NH2; lactam N-3)	-0.507%
COc1cccc2c(=S)c(CCC(C)=O)c(C)[nH]c12	11.3%
NCCNC(=O)Cc1ccc(NC(=O)Cc2ccc(Nc3ncnc4c3ncn4[C@@H]3O[C@H](CO)[C@@H](O)[C@H]3O)cc2)cc1	18%

Source: article PMC4336329 (PLoS ONE, 2015)
